The values that follow come from article PMC8255383.

Sequences of proteins named here, by UniProt entry; tags and fusion partners are left off. A change or cut given only in a name is not applied to a line headed by its entry.
UniProt Q96EB6: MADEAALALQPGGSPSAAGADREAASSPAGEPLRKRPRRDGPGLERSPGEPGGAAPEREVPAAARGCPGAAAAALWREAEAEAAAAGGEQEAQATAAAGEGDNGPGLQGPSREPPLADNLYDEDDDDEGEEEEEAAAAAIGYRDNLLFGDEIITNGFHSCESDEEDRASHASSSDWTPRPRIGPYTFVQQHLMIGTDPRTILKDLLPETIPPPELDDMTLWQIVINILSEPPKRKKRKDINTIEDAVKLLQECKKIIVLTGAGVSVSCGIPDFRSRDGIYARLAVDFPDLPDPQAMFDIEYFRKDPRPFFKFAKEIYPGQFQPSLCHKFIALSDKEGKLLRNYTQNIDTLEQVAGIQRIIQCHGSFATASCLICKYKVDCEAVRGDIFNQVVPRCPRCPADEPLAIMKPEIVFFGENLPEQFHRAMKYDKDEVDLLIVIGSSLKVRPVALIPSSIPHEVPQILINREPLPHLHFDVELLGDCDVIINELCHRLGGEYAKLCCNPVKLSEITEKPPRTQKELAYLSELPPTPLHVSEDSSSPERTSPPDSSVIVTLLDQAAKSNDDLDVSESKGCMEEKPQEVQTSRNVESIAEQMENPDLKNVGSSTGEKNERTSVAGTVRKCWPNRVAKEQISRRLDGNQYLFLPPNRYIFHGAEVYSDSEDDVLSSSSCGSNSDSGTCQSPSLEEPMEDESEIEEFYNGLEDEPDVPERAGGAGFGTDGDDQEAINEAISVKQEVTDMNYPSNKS
UniProt Q8N6T7: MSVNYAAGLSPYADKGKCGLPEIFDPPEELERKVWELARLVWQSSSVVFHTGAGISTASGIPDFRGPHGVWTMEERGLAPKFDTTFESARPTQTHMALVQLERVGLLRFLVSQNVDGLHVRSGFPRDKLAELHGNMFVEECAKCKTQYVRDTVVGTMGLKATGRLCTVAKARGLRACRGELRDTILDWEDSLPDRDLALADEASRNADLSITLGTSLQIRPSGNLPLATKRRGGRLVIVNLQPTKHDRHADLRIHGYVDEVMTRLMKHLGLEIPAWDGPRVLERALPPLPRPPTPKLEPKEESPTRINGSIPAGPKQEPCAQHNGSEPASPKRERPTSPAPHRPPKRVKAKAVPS
UniProt Q9NRC8: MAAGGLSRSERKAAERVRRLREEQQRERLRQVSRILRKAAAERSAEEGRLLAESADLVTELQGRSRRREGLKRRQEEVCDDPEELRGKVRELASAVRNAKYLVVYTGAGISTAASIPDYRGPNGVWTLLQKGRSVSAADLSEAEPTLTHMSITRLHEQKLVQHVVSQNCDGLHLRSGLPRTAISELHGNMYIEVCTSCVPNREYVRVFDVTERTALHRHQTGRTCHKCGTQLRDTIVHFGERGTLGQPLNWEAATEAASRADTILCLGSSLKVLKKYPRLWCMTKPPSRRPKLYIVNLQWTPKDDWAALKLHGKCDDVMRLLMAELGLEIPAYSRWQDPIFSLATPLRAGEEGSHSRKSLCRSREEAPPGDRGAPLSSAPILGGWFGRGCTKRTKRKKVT
UniProt P15559: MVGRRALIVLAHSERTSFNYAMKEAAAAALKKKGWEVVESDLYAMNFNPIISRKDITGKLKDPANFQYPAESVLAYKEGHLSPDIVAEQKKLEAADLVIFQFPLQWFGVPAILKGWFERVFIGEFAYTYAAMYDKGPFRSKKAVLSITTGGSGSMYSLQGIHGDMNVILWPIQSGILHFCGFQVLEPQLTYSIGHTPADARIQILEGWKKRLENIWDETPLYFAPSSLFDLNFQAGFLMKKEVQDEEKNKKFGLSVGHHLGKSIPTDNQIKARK

Assay [1] concerns the target flag-SIRT1 (UniProt Q96EB6). Description: co-IP; nuclear fraction of cells over expressing Flag-SIRT1 and NQO1, untreated or treated with rotenone or antimycin A for 16 h; flag immunoprecipitation.
In the next assay the target is flag-SIRT6 (UniProt Q8N6T7). Description: co-IP; extracts of HEK293 cells co-transfected with NQO1 and flag-tagged protein; Flag beads, washed, eluted, immunoblot; also after 10 mM NAM or 50 uM Resveratrol for 16 h. (In general: Immunoblotting shows a protein as a band on a membrane.)
For the next assay, the target named is flag-SIRT7 (UniProt Q9NRC8). Described as above.
The target in assay [2] is flag-SIRT1 (UniProt Q96EB6). The description is as above.
The next assay addresses T1, flag-SIRT2 (UniProt Q8IXJ6).
T1 sequence: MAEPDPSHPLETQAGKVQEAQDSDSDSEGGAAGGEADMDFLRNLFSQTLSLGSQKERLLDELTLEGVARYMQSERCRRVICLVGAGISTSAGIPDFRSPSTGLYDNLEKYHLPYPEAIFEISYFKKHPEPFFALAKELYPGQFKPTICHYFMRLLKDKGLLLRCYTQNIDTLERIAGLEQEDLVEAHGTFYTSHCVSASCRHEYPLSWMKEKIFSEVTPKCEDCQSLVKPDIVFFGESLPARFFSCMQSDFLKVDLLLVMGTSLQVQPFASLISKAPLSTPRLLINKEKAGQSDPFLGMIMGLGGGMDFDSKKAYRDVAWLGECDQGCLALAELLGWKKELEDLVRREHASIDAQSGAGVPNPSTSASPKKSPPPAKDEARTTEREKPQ
The assay is described as above.

The next assay addresses flag-SIRT1 H363Y (UniProt Q96EB6). Described as above.
The target of a further assay is His-SIRT1 (UniProt Q96EB6). Description: pull-down; recombinant purified His-SIRT1 and NQO1 incubated, precipitated with Ni-NTA beads; 50 mM Tris-HCl pH 8.0, 150 mM NaCl, 20 mM imidazole; eluted with 200 mM imidazole; both purified.

No constants are given. Whether binding was seen depends on the method and setting. For some of these results: Binding seen in cells or lysates may run through a third protein. Some entries that bind do so weakly or less than the wild type. For some of these results: Tags and fused reporters may be left off the sequences shown.

Take “NQO1 (NAD(P)H Dehydrogenase Quinone 1) (from UniProt P15559 1-274) (enzyme)”: the binding entry with flag-SIRT1 [1] is “binds”; with flag-SIRT6, “binds weakly”; with flag-SIRT7, “binds weakly”; with flag-SIRT1 [2] it was “binds”; in the assay with flag-SIRT2, “binds weakly”; in the assay with flag-SIRT1 H363Y it was “no binding”.

As to “NQO1 (recombinant, His-TEV removed) (from UniProt P15559 1-274) (enzyme)”, in the assay with His-SIRT1, the binding entry was “binds”.
